Results: PubChem BioAssay (NCI)
Values joined by “and” are separate entries in the source; they are usually repeats but may differ in a detail not shown here. Equal values may be shown once.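 Tested at 5 concentrations; 48 h exposure; 96-well plates; endpoints linearly interpolated, else capped at highest concentration. Abbreviation: GI50, concentration required for 50% inhibition of growth. At the TGI there is no net growth.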

Test system: NCI-H322M lung
Test: inhibition of tumour cell growth, NCI panel, 48 h

Row | Compound | GI50 | TGI
1 | COc1ccc(-c2cc(/C=C3\C(=O)Nc4ccc(Cl)cc43)[nH]n2)cc1 | 7.05 µM | 22.5 µM
2 | CC(C)C(C/C=C1\CC(CO)(COC(=O)c2ccccc2)OC1=O)C(C)C (stereo not drawn) | – | 23.1 µM
3 | COC(=O)/C=C(\C)C(=O)N(C)c1ccccc1I | – | > 100 µM
4 | NNc1cccc(/C=C/c2ccccc2)cc1=O | 5.83 µM | 64.3 µM
5 | COc1cc2c3c(c1)c1cc(OC)c(OC)cc1c[n+]3CC2 | 12.7 µM | 50 µM and > 100 µM
6 | CC1(C)OC(=O)C=C([O-])O1.CC1(C)OC(=O)C=C([O-])O1.O=S(=O)([O-])c1ccc([O-])c2ncccc12.O=S(=O)([O-])c1ccc([O-])c2ncccc12.[Ti+4] | > 100 µM | > 100 µM
7 | COc1cc2cc(C(=O)N3C[C@@H](CCl)c4c3cc(N)c3ccccc43)[nH]c2c(OC)c1OC | – | > 100 µM
8 | CC(C)CCC[C@@H](C)[C@H]1CCC2C3CC=C4C[C@@H](Oc5c6ccccc6nc6ccccc56)CCC4C3CCC21 (stereo partly drawn) | – | > 50 µM
9 | CCOC(=O)C(Cc1c[nH]c2ccc(N(CCCl)CCCl)cc12)(NC(C)=O)C(=O)OCC | 44.4 µM and 43.3 µM | 271 µM
10 | COc1ccc(O[C@H](COCc2ccccc2)C[C@@H]2COC(C)(C)O2)cc1 | – | > 100 µM
11 | O=C1CSC(/C(=C\c2ccc(Cl)cc2)c2nc3ccccc3[nH]2)=N1 | – | 20.4 µM
12 | COc1cc2c(c(OC)c1OC)-c1ccc(SC)c(=O)cc1[C@@H](OC(C)=O)CC2 | – | > 100 µM
13 | Cc1c(C(=O)N2CCN(c3ccc([N+](=O)[O-])cc3)CC2)[n+](=O)c2cc(Cl)c(Cl)cc2n1[O-] | – | 97.5 µM
14 | c1ccc(-c2sc(-c3cccs3)cc2Cc2cccs2)cc1 | – | > 10 µM
15 | COC1=C(N=[N+]=[N-])C(=O)c2ncccc2C1=O | – | 31.8 µM
16 | CNc1ccc(-c2nc3cc(C)ccc3o2)cc1 | – | > 100 µM
17 | CC1(C)N=C(C(N)=O)c2ncn(CCO)c2N1 | – | > 100 µM
18 | C=CCOc1ccccc1N=N/C(C#N)=N\Nc1ccccc1OCC=C | – | > 100 µM
19 | C=C1C(=O)O[C@H]2[C@H]1CC/C(COC(=O)NCc1ccc(Cn3c(=O)sn(CCCCl)c3=O)cc1)=C\CC[C@@]1(C)O[C@@H]21 | 14.1 µM | 27.2 µM
20 | CC1=C[C@H]2c3c(c(O)c(O)c4oc5ccccc5c(=O)c34)[C@H](c3cc(O)c(O)c4oc5ccccc5c(=O)c34)[C@H]2C(C)(C)C1 | 2.07 µM | 13.6 µM
21 | C=C=C(CC)C(C(=O)OC)N(CC)CC (stereo not drawn) | – | > 100 µM
22 | O=C(NCCCCCCNC(=O)n1cc(F)c(=O)[nH]c1=O)NCCCOCCOCCCNC(=O)C(O)C(O)C(O)C(O)CO (stereo not drawn) | – | > 2.5 µM
23 | Cc1ccsc1/C=N/Nc1cc(C)c2cccc(C)c2n1 | – | > 100 µM
24 | [Se]=P(c1ccccc1)(c1ccccc1)c1ccc(C(c2ccccc2)=P(c2ccccc2)(c2ccccc2)c2ccccc2)cc1 | – | 10.2 µM

Row | Compound | GI50 | TGI
25 | CCCCCCCCCCCCCCCCSCC(COC)COP(=O)([O-])OCC[N+](C)(C)C (stereo not drawn) | – | 29.1 µM
26 | O=C(CN1CCN(Cc2ccccc2)CC1)N1CCCn2c1nc1ccccc1c2=O | – | > 100 µM
27 | C=C1C(=O)OC2CC1C(O)C/C(C)=C/CC/C(C)=C/C(O)CC2C (stereo not drawn) | – | 23.2 µM
28 | Cc1c(C(=O)c2ccccc2C(=O)O)c2ccccc2n1C | – | > 100 µM
29 | Cn1ncc2c(N)nc(N3CCCCC3)nc21 | 18.5 µM | 59.7 µM
30 | CN(C)N1C(=O)c2ccccc2NC1c1ccccc1 (stereo not drawn) | – | > 100 µM
31 | CN1C(=S)C(c2ccccc2)Sc2ccccc21 (stereo not drawn) | – | > 100 µM
32 | COc1ccc(C(N)=O)cc1N=NN(C)C | – | > 100 µM
33 | CCC(=O)C(C)C1=Nc2nnc(CCCCCCCc3nnc4n3C(=O)C(C(C)C(=O)CC)=N4)n2C1=O (stereo not drawn) | – | > 100 µM
34 | CCOc1cc(NC(C)=O)ccc1C(=O)NN1C(=O)C(Oc2ccccc2)C1c1ccccc1 (stereo not drawn) | – | > 100 µM
35 | N=C(N=C(N)N)N1CCN(c2ccncc2)CC1 | > 1000 µM | > 1000 µM
36 | CC(C)=CC(=O)O[C@H]1C(=O)O[C@@H]2C[C@H]3[C@H](C)C(=O)C(O[C@@H]4O[C@H](CO)[C@@H](O)[C@H](O)[C@H]4O)=C[C@]3(C)[C@H]3[C@@H](O)[C@H](O)[C@]4(C(=O)O)OC[C@]32[C@@H]14 | > 100 µM | > 100 µM
37 | Cn1c(=O)c(Oc2ccccc2F)cc2cnc(NC3CCOCC3)nc21 | > 25 µM | > 25 µM
38 | COc1cc2c3c(n(CCCNCCN)c(=O)c2cc1OC)-c1cc2c(cc1C3=O)OCO2 | 0.844 µM | 4.6 µM
39 | CN(CN1C(=O)C2Cc3ccccc3CN2C1=O)c1ccccn1 (stereo not drawn) | – | > 100 µM
40 | COc1ccc2c(Nc3ccc(NS(C)(=O)=O)cc3)c3ccccc3nc2c1 | 1.02 µM | 8.74 µM
41 | COc1ccc2cc1Oc1ccc(cc1)C(Sc1ccccc1)CCOC(=O)CC2 (stereo not drawn) | – | > 100 µM
42 | N=c1nnc(=O)c2c(s1)-n1ncc(C(=O)O)c1NN2 | – | > 100 µM
43 | CC/C=C\C[C@H](O)C/C=C1/C(=O)C=C[C@@H]1C/C=C\CCCC(=O)N(C)C | 1.72 µM | 5.78 µM
44 | O=c1cc2ccccc2nn1Cc1ccccc1Cl | – | > 100 µM
45 | Nc1ccc(S(=O)(=O)C23CC4CC(CC(C4)C2)C3)cc1 | – | > 100 µM
46 | O=C(Nc1nc2ccccc2n1Cc1ccccc1)NC12CC3CC(CC(C3)C1)C2 | – | 79.7 µM
47 | Cn1c(=O)nc2n(-c3cccc(F)c3)c3ccccc3nc-2c1=O | – | 82.3 µM
48 | CCOC(=O)C(CO)c1nc2c([nH]c1=O)c(=O)n(C)c(=O)n2C (stereo not drawn) | – | > 100 µM

Row | Compound | GI50 | TGI
49 | CN(C)C(N)=NC#N | – | > 100 µM
50 | O=C1CSc2nc3ccccc3n2/C=N\N1 | – | > 100 µM
51 | CC(C(=O)ON1C(=O)CCC1=O)c1ccc(C(=O)c2ccccc2)s1 (stereo not drawn) | – | > 100 µM
52 | C[C@]1(CO)[C@H]2CC[C@@]34C=C[C@@](CO)(CC[C@H]3[C@]2(C)CC[C@H]1O)C4 | – | > 100 µM
53 | COc1cccc(NC(=O)CC(=O)N2N=C(N(CCC#N)c3ccccc3C)CC2c2ccccc2)c1 (stereo not drawn) | – | > 100 µM
54 | O=C(/C=C/c1ccsc1)c1ccco1 | – | 35.1 µM
55 | O=c1[nH]nc(-c2ccccc2)n1/N=C/c1c[nH]c2ccccc12 | – | > 100 µM
56 | C/C(=N/NC(=S)Nc1ccccc1Cl)c1cccc(/C(C)=N\NC(=S)Nc2ccccc2Cl)n1 | – | 8.28 µM
57 | CCOc1ccc(/C=C(\Cl)c2ccc(OC)c(OC)c2)cc1 | – | > 100 µM
58 | ClC(Cl)(Cl)C1=N[C@H]2[C@H](Br)[C@@H]3O[C@@H](c4ccccc4)[C@H](c4ccccc4)O[C@@H]3[C@H]2O1 | – | 39.1 µM
59 | O=C1Sc2ccc(Br)cc2C(=O)Sc2ccccc21 | – | 36.5 µM
60 | COc1cc(/C=C2\CC3C4CC=C5C[C@@H](OC(C)=O)CC[C@]5(C)C4CC[C@]3(C)C2=O)ccc1OCCCn1ccnc1 (stereo partly drawn) | 8.75 µM | 22.7 µM
61 | Cn1c(=O)c2c(nc3n(Cc4ccccc4)c(=O)c(NCCBr)cn23)n(C)c1=O | – | > 100 µM
62 | C=C1C(=O)OC2(C)C3CCC(C3)C12 (stereo not drawn) | – | > 100 µM
63 | NCCCn1c2ccccc2c2c3c(c4c(c21)CCC(O)CC4)C(=O)NC3=O (stereo not drawn) | – | 14.7 µM
64 | COc1cc(C2SCC(=O)N2c2ccc(-n3c(-c4ccccc4)nc4ccccc4c3=O)cc2)ccc1O (stereo not drawn) | – | > 100 µM
65 | CCCCCCCCCCCCCCCCCCNc1ccn(C2OC(COP(=O)(O)OCC3CCC(n4cnc5c(=O)[nH]cnc54)O3)C(O)C2O)c(=O)n1 (stereo not drawn) | – | > 100 µM
66 | C(CCC[Te][Te]CCCCCCOC1CCCCO1)CCOC1CCCCO1 (stereo not drawn) | – | 41.2 µM
67 | CCOC(=O)c1sc2nc(SC)nc3c2c1NC(=O)CN3c1cccc(F)c1 | – | 68.7 µM
68 | O=C1/C(=C\c2cccc(Oc3ccccc3)c2)S(=O)(=O)C(c2ccccc2)N1c1ccccc1Cl (stereo not drawn) | – | > 100 µM
69 | CC(=O)O[C@H]1CC[C@@]2(C)C(=CC[C@H]3[C@@H]4C/C(=C\c5cccc(OCCN6CCOCC6)c5)[C@H](OC(C)=O)[C@@]4(C)CC[C@@H]32)C1 | 14.2 µM | 30.7 µM
70 | CCOC(=O)c1[nH]c(-c2ccc(Cl)cc2)cc1-c1cccnc1 | 0.664 µM | > 100 µM
71 | O=C1C(F)=CC(COC(c2ccccc2)(c2ccccc2)c2ccccc2)OC1n1cc(F)c(=O)[nH]c1=O (stereo not drawn) | – | 20.6 µM
72 | NNc1nc2ccccc2c(=O)n1NC(=O)C(=O)Nc1cccc(C(F)(F)F)c1 | – | > 100 µM

Row | Compound | GI50 | TGI
73 | Cc1nc2c(n1C(C)(C)C)C(=O)c1ccccc1C2=O | – | > 100 µM
74 | O=[N+]([O-])/C(C(Cl)=C(Cl)Cl)=C1\NCCO1 | – | > 100 µM
75 | CN1CCCN(C)C1c1cc([N+](=O)[O-])ccc1O | – | > 100 µM
76 | Cc1cc(CNC(=O)OCc2ccccc2)c(C)c2c1Oc1ccccc1O2 | – | > 100 µM
77 | N#Cc1c(-c2ccccc2)cc(-c2ccc(Nc3nc(Nc4ccc(Cl)cc4)nc(Nc4ccc(Cl)cc4)n3)cc2)nc1N | 61 µM | > 100 µM
78 | COc1ccccc1C1SCC(=O)N1c1ccc(-c2ccc(-n3c(-c4ccccc4)nc4ccccc4c3=O)cc2)cc1 (stereo not drawn) | – | > 100 µM
79 | COc1c(C(=O)O)oc2c(OC)cccc12 | – | > 100 µM
80 | CN1NC2(CCCCC2)ON=C1c1ccccc1 | – | > 100 µM
81 | CCNC(=O)C#CC(=O)NCC | > 100 µM | > 100 µM
82 | CO/C1=C\C(C)=C\C(C)C(O)C(C)C/C(C)=C/C=C/C(OC)C(C(C)C(O)C(C)C2(O)CC(O)C(C)C(C(C)C)O2)OC1=O (stereo not drawn) | 3.37 µM | 23.9 µM
83 | CCOC(=O)C1(Cc2ccccc2)CCCCCN1 (stereo not drawn) | – | > 100 µM
84 | CCN(CC)CCCOC(=O)/C=C/c1c(C)[nH]c(=O)[nH]c1=O | – | > 625 µM
85 | CC(C)c1ccc(C(=O)Nc2sc3c(c2C#N)CCC(=O)C3)cc1 | 6.13 µM | > 100 µM
86 | NC1CCN(c2nc(Nc3cccc(C(F)(F)F)c3)c3c(=O)[nH]ccc3n2)CC1 | 1.19 µM | 3.09 µM
87 | CCCCc1c(C(=O)OC(C)(C)C)cc(C#Cc2cc(C(=O)OC(C)(C)C)c(CCCC)c(C(=O)OC(C)(C)C)c2)cc1C(=O)OC(C)(C)C | – | > 100 µM
88 | CC(=O)[C@@H]1CCC=C2CC[C@]3(C)[C@@H](CC[C@@H]4[C@@]5(C)CCCNC(C)(C)[C@@H]5CC[C@]43C)[C@H]21 | 1.73 µM | 3.14 µM
89 | C1CSCCCSCCSCCCSC1 | – | > 100 µM
90 | COC(=O)c1c2c(c(C)[n+]([O-])c1C)C(=O)C=C(NCc1ccc(F)c(F)c1)C2=O | 0.704 µM | 2.09 µM
91 | O=S(=O)(NCC1CCC(CNc2ccc(Cl)cc2)CC1)c1ccc(-c2ccccc2)cc1 (stereo not drawn) | > 50 µM | > 50 µM
92 | COC(=O)C1=C(C)NC2(O)C=CC(=O)C3C(=O)N(c4ccccc4)C(=O)C132 (stereo not drawn) | – | > 100 µM
93 | COC(=O)c1sc(C(=O)OC)c2c1CSC2 | – | > 100 µM
94 | CCN1C(=S)N(CC)C2C1NC(=S)N2/N=C/C=C/c1ccccc1 (stereo not drawn) | 6.38 µM | 37.8 µM
95 | CC[C@@]1(O)C(=O)NCc2c1cc1n(c2=O)Cc2cc3c(N)cccc3nc2-1 | 4.23 µM | 67.8 µM
96 | NC(=O)c1nnc2cc(F)ccc2c1N | – | > 100 µM
